# Test results taken from article PMC4336329 (PLoS ONE, 2015).
# Among all 310,000 compounds or so, about 2,200 (0.71%) showed an effect of 50% or more. Effects have a minus sign here. Some of the results follow.
# Molecular target: human ether-à-go-go-related gene (hERG) potassium channel (human, UniProt Q12809)
# Experiment: primary screen, population patch clamp on CHO cells stably expressing hERG
# Sequence of human ether-à-go-go-related gene (hERG) potassium channel (Q12809 whole entry, looked up): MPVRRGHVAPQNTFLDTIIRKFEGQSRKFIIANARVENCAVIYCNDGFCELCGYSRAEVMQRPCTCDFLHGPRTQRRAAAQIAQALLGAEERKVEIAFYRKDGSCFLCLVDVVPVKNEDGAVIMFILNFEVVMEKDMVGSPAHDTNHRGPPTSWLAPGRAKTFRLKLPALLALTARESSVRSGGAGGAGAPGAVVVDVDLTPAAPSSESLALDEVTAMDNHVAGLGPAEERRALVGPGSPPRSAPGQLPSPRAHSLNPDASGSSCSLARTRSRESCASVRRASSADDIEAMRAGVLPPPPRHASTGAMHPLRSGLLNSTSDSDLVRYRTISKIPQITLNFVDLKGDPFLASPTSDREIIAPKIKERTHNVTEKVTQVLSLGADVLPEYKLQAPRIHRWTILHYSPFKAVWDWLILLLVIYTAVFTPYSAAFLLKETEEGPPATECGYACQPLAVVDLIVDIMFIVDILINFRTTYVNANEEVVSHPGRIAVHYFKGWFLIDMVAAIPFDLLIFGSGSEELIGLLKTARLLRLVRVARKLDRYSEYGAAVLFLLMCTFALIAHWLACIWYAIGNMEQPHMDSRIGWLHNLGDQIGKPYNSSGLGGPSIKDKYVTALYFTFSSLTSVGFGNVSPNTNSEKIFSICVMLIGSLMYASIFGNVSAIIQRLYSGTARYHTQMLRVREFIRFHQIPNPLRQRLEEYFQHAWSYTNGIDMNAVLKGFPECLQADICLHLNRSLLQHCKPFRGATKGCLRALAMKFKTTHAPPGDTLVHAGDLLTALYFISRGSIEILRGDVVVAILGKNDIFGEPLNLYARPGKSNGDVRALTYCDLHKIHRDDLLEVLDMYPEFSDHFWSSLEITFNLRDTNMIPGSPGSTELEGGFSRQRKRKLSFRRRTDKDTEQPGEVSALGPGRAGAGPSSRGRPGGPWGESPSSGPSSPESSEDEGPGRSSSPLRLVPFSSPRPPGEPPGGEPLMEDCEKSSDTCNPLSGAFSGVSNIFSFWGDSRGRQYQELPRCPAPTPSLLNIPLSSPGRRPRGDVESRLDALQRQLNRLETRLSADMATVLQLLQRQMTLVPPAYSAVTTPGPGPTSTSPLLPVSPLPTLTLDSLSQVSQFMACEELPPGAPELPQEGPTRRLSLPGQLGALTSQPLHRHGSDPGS
row,SMILES,"hERG current change (%, negative = inhibition) at 1uM [%]"
1,Cc1ccc(C)c(S(=O)(=O)N2CCN(C(=O)c3ccccc3Cc3ccccc3)CC2)c1,5.9
2,O=C1NC2=C(C(=O)OC2)C(c2ccc(OC(F)(F)F)cc2)N1 (stereo not drawn),9.09
3,CCCNC(=O)c1c(CSc2ccccc2)noc1C(=O)NCc1ccccc1,4.19
4,COc1cccc(-c2cc(C(=O)N3CCN(c4ncccn4)CC3)c3ccccc3n2)c1,13.5
5,NS(=O)(=O)c1ccc(NC(=S)NC(=O)/C=C/c2ccco2)cc1,14.3
6,CN(C(=O)COC(=O)/C=C/c1ccc(Cl)c(Cl)c1)c1c(N)n(Cc2ccccc2)c(=O)[nH]c1=O,19.7
7,O=S(=O)(c1ccc(F)c(F)c1)N1CCN(c2ncccn2)CC1,9.41
8,COc1cccc(C(=O)CN2C(=O)C(C)(C)Oc3ccc(C(=O)N4CCOCC4)cc32)c1,17.1
9,Cc1cccc(NC(=O)c2cccc(NC(=O)Cc3cccs3)c2)c1,7.98
10,Fc1ccc2[nH]c3c(N4CCc5ccccc5C4)ncnc3c2c1,14.2
11,CC1(C)OC(=O)N(CCc2ccccc2)C1(C)O (stereo not drawn),-4.43
12,O=C(NCc1ccco1)c1cc2nc(-c3ccc4c(c3)OCO4)cc(C(F)(F)F)n2n1,10.9
13,COc1cc(/C=N/Nc2nc(N3CCCC3)nc(N3CCCC3)n2)ccc1O,-4.08
14,c1ccc2c(COn3nnc4ccccc43)cccc2c1,-7.25
15,C=CCN(c1ccccc1)S(=O)(=O)c1cccc(C(=O)N(CC)CC(=O)Nc2c(F)cccc2F)c1,12.1
16,Nc1ccc(CNC(=O)OCC2c3ccccc3-c3ccccc32)cc1,5.26
17,CC(C)c1ccc2oc(-c3cc(N)ccc3O)nc2c1,10.7
18,CN1CC(=O)N=C1N.Cl,-0.973
19,Cc1cccc(C)c1Nc1nc2ccccc2o1,-2.32
20,CCC(C(=O)N1CC2(C)CC1CC(C)(C)C2)N1C(=O)c2ccccc2C1=O (stereo not drawn),-2.42
21,CC1(C)CC(=O)/C(=C(\O)c2ccccc2)C(=NCCc2ccccc2)C1,18.2
22,COc1ccc(NC(=O)Nc2ccc(F)cc2F)c(C)c1,9.23
23,COc1ccc(CNCCC2(O)CC(C)N(C)CC2C)cc1OC.Cl (stereo not drawn),5.27

row,SMILES,"hERG current change (%, negative = inhibition) at 1uM [%]"
1,Cc1cc(SCC(=O)c2cc3ccccc3o2)nc2ccccc12,16.3
2,O=C(COC(=O)c1ccco1)NCc1ccco1,8.77
3,CSc1ccccc1C(=O)Nc1cccc([N+](=O)[O-])c1C,6.15
4,CN(C)/N=C1\CCS(=O)(=O)c2sccc21,4.8
5,CC(C)CC(OC(=O)c1ccco1)C(=O)NC1CCCCC1 (stereo not drawn),10.2
6,CCOc1ccc(/C=N/N(C)c2ccccc2)cc1OC,11.6
7,O=C(NCc1ccccc1F)C1CCN(C(=O)Nc2ccc(F)cc2)CC1,11.8
8,Cc1ccc(NC(=O)CCC(=O)c2cccs2)c(O)c1,12.7
9,COc1ccccc1-c1cn(-c2ccccc2)c(=S)[nH]1,9.44
10,O=C(Cc1ccc(S(=O)(=O)N2CCOCC2)s1)Nc1ccccc1Br,14.9
11,COc1ccc(S(=O)(=O)N2CCCOC2CNC(=O)C(=O)NCc2ccccn2)cc1 (stereo not drawn),5.91
12,CCOc1cccc(C(c2c(C)n(C)n(-c3ccccc3)c2=O)c2c(C)n(C)n(-c3ccccc3)c2=O)c1OC,12
13,CC(C)CCOC(=O)C(C)Sc1n[nH]c(=O)[nH]c1=O (stereo not drawn),-0.316
14,COC(=O)CCN1CCN(S(=O)(=O)c2ccc3c(c2)OCCO3)CC1,13.4
15,COC(=O)c1sc(NC(=O)c2c(F)cccc2F)c(C#N)c1C,8.62
16,O=C(O)c1ccc(S(=O)(=O)N2CCc3ccccc3C2)cc1,15.1
17,CCCOC(=O)NC(CC)COC(=O)Nc1cccc(C)c1C (stereo not drawn),-0.198
18,Cc1ccc(-c2nn(-c3ccccc3)cc2CO)cc1,-0.445
19,Cc1cccc2c(C(=O)Nn3cnnc3)cc(-c3ccccc3Cl)nc12,14.3
20,O=C(O)c1ccc(CSCc2c(F)cccc2Cl)o1,-5.49
21,C=CCNC(=O)c1cnc(-c2ccccc2)nc1-c1ccccc1,17.4
22,COc1ccc(CCN(C(=O)c2cccc(F)c2)C2CC(=O)N(c3ccccc3)C2=O)cc1 (stereo not drawn),0.224
23,O=C(COc1ccc(OCc2ccccc2)cc1)NN=C1CCCC1,18.2

row,SMILES,"hERG current change (%, negative = inhibition) at 1uM [%]"
1,CCOC(=O)CNC(=O)CSc1nc(C)cc(C)c1C#N,19
2,Oc1ccccc1/C=N/Nc1nc2ccccc2o1,11.8
3,COc1ccc(C(=O)NCC(=O)N/N=C/c2c(C)[nH]c3ccccc23)cc1OC,7.52
4,COC(=O)/C(C#N)=C/N(C)C,11.5
5,Cc1nc(SCCC(=O)O)c2cc(-c3ccccc3)sc2n1,6.67
6,CCOc1ccc(S(=O)(=O)N2CCN(C(=S)NCc3ccco3)CC2)cc1,1.75
7,O=[N+]([O-])c1cccc(/C([O-])=C(/C(=S)Nc2ccccc2)[n+]2ccccc2)c1,2.99
8,COC(=O)C1=C(c2cc3ccccc3o2)C[C@@H]2CC[C@H]1N2C(=O)NCc1ccc(C(F)(F)F)cc1,9.4
9,O=C(O)c1ccc(Oc2ccc(C(F)(F)F)cn2)cc1,8.5
10,Fc1ccc(N=Cc2ccc[nH]2)cc1,15.1
11,OC1(C#CCN2CCOCC2)CCCCC1,6.88
12,Cc1cccc(CCNS(=O)(=O)c2cc3c(cc2C)NC(=O)CO3)c1,-13.3
13,Cc1ccc(S(=O)(=O)N2c3ccccc3CC2C)cc1 (stereo not drawn),20.3
14,O=C(Nc1ccc(Cl)cn1)c1ccccc1[N+](=O)[O-],7.12
15,Cc1nn(S(=O)(=O)c2ccc(C(C)C)cc2)c(C)c1S(=O)(=O)N1CCOCC1,9.06
16,Cc1ccsc1C(=O)OCC(=O)NC1CCS(=O)(=O)C1 (stereo not drawn),9.72
17,COCCCNC(=O)CSC1=Nc2ccccc2C2=NC(c3ccccc3)C(=O)N12 (stereo not drawn),1.53
18,O=C(N/N=C/c1cccs1)c1cccc(NC(=O)c2ccccc2Cl)c1,5.36
19,CCCCn1c(=S)[nH]c2ccc(N3CCOCC3)cc2c1=O,8.71
20,Oc1ccc(C[C@@H]2CNC(=S)N2CCc2cc(C(F)(F)F)cc(C(F)(F)F)c2)cc1,11.9
21,CCN(CC)c1ccc(NC(=O)CSc2nc3ccccc3c(=O)n2-c2cc(S(=O)(=O)N(C)C)ccc2C)cc1,13.1
22,C=C(C)C1Cc2nc(N)nc(C)c2C1 (stereo not drawn),10.3
23,Cc1nc2c(C)cccn2c1/C(O)=C1\C(=O)C(=O)N(CCN2CCOCC2)C1c1cccs1 (stereo not drawn),10.1

row,SMILES,"hERG current change (%, negative = inhibition) at 1uM [%]"
1,O=C(NC12CC3CC(CC(C3)C1)C2)C1CC(=O)N(c2ccccc2)C1 (stereo not drawn),10.4
2,Cc1cc(NC(=O)CSCCO)no1,14
3,CC(=O)N(CC1CCCO1)C1(C(=O)NC2CCCC2)CCCCC1 (stereo not drawn),10.8
4,COCCNc1c(-c2ccc(OC)cc2)nc2ccc(Cl)cn12,-3.29
5,O=C(NNC(=S)Nc1ccc(F)cc1)C1[C@H]2CCCC[C@@H]12 (stereo partly drawn),7.01
6,CCOC(=O)c1cc(NC(=O)CNCC(c2ccccc2)N(C)C)cc(C(=O)OCC)c1.O=C(O)C(=O)O (stereo not drawn),-14.8
7,NS(=O)(=O)c1ccc(CCNC(=O)c2ccc([N+](=O)[O-])s2)cc1,8.69
8,O=C(NCCCC(=O)N1CCOCC1)c1cccnc1,10.3
9,CCOC(=O)N1CCN(Cc2ccc(O)c3ncccc23)CC1,5.54
10,CC(C)N(C(=O)CN1C(=O)NC2(CCCCCC2)C1=O)C(C)C,9.1
11,O=C(O)Cc1ccc(NC(=O)c2ccc3c(c2)C(=O)N(Cc2ccco2)C3=O)cc1,0.071
12,CS(=O)(=O)N(CC(=O)Nc1cccc(F)c1)Cc1ccccc1,20.1
13,ClCc1nc2ccccc2c2ccccc12,9.29
14,Cc1ccc(N=Nc2c(N)[nH]n3c(=O)cc(-c4ccccc4)nc23)cc1,10.6
15,Nc1ccc2c(c1)N1CCN=C1S2,20
16,CC1CCCN(c2nc3nonc3nc2N2CCCC(C)C2)C1 (stereo not drawn),9.07
17,Cc1onc(-c2ccccc2)c1C(=O)OCCOc1cccc(Cl)c1,0.232
18,COc1ccc(N(Cc2ccccc2)C(=O)c2ccccc2[N+](=O)[O-])cc1,5.87
19,CN1CCN(C(=O)C2=C[C@H](c3coc4ccccc4c3=O)C[C@H](OCCCCO)O2)CC1,0.174
20,Cc1nc2nc(C)c(CCC(=O)NCc3ccc4c(c3)OCO4)c(C)n2n1,-7.73
21,COc1ccc(OCC(=O)Nc2cccc(C(=O)Nc3ccccc3C(=O)O)c2)cc1,5.99
